{
  "source": "the supplement of paper PMC12632987",
  "binders": {"B1": {"name": "GBRAP_125_2964 (protein)", "chain": "SEEEDLEALATLAKALGFDEDDVEEAVRLARKFGFKNTLIALFLAEGYDEVADLVEKLTEEEAKEVLKRLAEEIKKNPELTPEEVVKLAKELFEEVIAKK"}, "B2": {"name": "GBRAP_128_3311 (protein)", "chain": "IDEEIIKKAEELIKKIVEASVEEAAKLTEELIALMGEASEEEREIITELFKEALKELSAEKLEAVADVLRKNRPKLDPLAANEAAELEVEALNLAEEKEE"}, "B3": {"name": "GBRAP_128_3344 (protein)", "chain": "VDEAFLAEIRKLLEEMLEADEEEAKKLAEKIMEALVKASLEEVEAAAEIIRELLPKFSAEHLEILADELRKYRDKFTPEKQLVIADLEVELLNAAEEKEE"}, "B4": {"name": "GBRAP_11_2737 (protein)", "chain": "SKEKLKEIAKLAEEAAKLLEKLIKEGVDNEELRKEAEKALEKLEKAVKEYGDESLQKLAELAKEHFEEALKDPENAEQHLKEAAAALRVLEGQVLLDIEE"}, "B5": {"name": "GBRAP_150_3909 (protein)", "chain": "DLETLLTLAHTLIDILEAIIDGELELLPHALKIAKAILEEAKEIDEEIKKLAEELLKKLEEAKKLLEEGGKEEEIKKLLEEALKLAEEIEKLIEKKIKEK"}, "B6": {"name": "GBRAP_84_7006 (protein)", "chain": "EREEEIVKLTKEILEKGSIELKALLLTYLILKNENKAATLALNDLLKEDPEAAVEALDRATEAYEEGKEEEVEKELKEKAKKEGKEVAELVEKLIKLLEE"}, "B7": {"name": "GBRAP_160_4016 (protein)", "chain": "SAEIEKLKKEIEEEFEELKEDMKGLTPEERITLARGTAGLVLQLVESSPAVSDETEEEVAKILDAFVAEVEANADAPLAVHDKLIDDTLEKIKELLDKDE"}, "B8": {"name": "GBRAP_137_3641 (protein)", "chain": "MKVTIEKETIDDLVEITITVDDPEKAEEYKELLLDIAVEHGALAISAEIKEDGTLEVTIWVPKEKADALIDAIVKALQEKFNATVTVIDKDTGEVKTYKP"}, "B9": {"name": "GBRAP_80_6806 (protein)", "chain": "AEARLAAALAEIAALDPELAARVADIVARARALGVPTEVLAEYAEAIAALLRVDPARARELVDELAEELAEEAEAGDTENATATLRVYAGQALLAVEELE"}, "B10": {"name": "GBRAP_177_5011 (protein)", "chain": "SVVEQARAALDDPAALLALVRATDPSKLSKEEMLELIRIVAKTLAKHGYDEELVEALAELILAAMKHHGVSLGELLGIVIEEVDADTAERILDKVYELSE"}, "B11": {"name": "GBRAP_52_6206 (protein)", "chain": "MEERMRRAAEELLALVRAGDLEGAREYARRLARELSEEELELLGEQLVEIARRAAPEDLDAVFEAAEILSEVLEEEGYDEALADGLLNRVAAALYERELE"}, "B12": {"name": "GBRAP_128_3540 (protein)", "chain": "SLEEAKEYAEEVMEKIKNSTVEEAKKITKEFLEKLKSWTDEEVEAAVDVVIEKLPELTAEKLEALADTIEEERGKFTPEKQNLLAEVEVEALNEALEKEE"}, "B13": {"name": "GBRAP_122_2946 (protein)", "chain": "SETEERLERLVEEMVEALEAGDEEKLRELAEELVRLFDTISPEEARAAVERLIERVEGDEEKLERALRALLEAFYKNEPLTPAQEAAADVVAERFDELSE"}, "B14": {"name": "GBRAP_184_5021 (protein)", "chain": "RLLEEEIEVENVEEARAKLAELRARLAAEKADAVVLLDIKDPTPEILATIAEEVARIMAEGAAARLTVGIAAPLTEEQVDFLVERLSAAGARLVVALSEE"}, "B15": {"name": "GBRAP_83_6972 (protein)", "chain": "AEKIVVATTPDHIDSAIDAARDLATEEGYEVTVEIIGEPEEALAAARRAAEALKDIPNVSIVVAVERVRAEEAERLRREVAEIGERYGLEVRFEAELLPP"}, "B16": {"name": "GBRAP_52_5968 (protein)", "chain": "MRERAEELVREAIELERRGDEEGLRRLLREIAETWDDEELRLLAEALAEAAEEGDEEEAEIALRVAIRLADVLEEAGRDPRLAADLLGLVSTAAYKKELE"}, "B17": {"name": "GBRAP_16_4997 (protein)", "chain": "EEILARTEGAAEFAKLIADALEGGDPELVKKAKELAEKLKRAAELIKKGGEKEEILKELEEALKLAEELAKLLAATDPEGAAAAQTLAKEIKEIIKEVKK"}, "B18": {"name": "GBRAP_125_3105 (protein)", "chain": "MEEEILEALKLLAKALGFDDEDAEEAARLAREFSVKMTLYALLKAEGEEELADLVEKLTEEQAKKVLLKVAEWLKKNPNATKEEVLKKLKEVILEELEKA"}, "B19": {"name": "GBRAP_186_5373 (protein)", "chain": "SEELEEKIDEIIEELEAEGYRVIVVDTITELTPEEKEAIRDDAEAVGELAKETGQKWALVIPFAGTAEEVEEARAFVAELNKEFSAKYGVKVRLAGEVVP"}},
  "note": "The full ranking holds about 4,500 sequences; the median of “median log2 fold change of GCK-ALFA target abundance (FLAG IP / Myc IP barcode read proportion)” is about 0.078, and the lowest 2% start at about -0.6. This is one part of the list.",
  "data": [
    {"target": "GABARAP, O95166", "sequence (O95166 whole entry, the tested form may be a part)": "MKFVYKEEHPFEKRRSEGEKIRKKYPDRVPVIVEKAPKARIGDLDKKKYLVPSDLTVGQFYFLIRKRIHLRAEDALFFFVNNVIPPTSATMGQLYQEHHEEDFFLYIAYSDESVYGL", "experiment": "median log2 fold change of GCK-ALFA target abundance (FLAG IP / Myc IP barcode read proportion) (log2 ratio); each designed protein is fused to an ALFA-tag nanobody in HEK293 cells to bring the named protein to FLAG-tagged glucokinase (GCK); Myc marks an untargeted standard; higher = target protein stabilised (more abundant)", "conditions": "target protein: 3xFLAG-MCP-GCK-ALFA reporter; HEK293 landing pad (RPLP)", "in_short": "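Sequencing of reverse-transcribed, amplified circular RNA barcodes from anti-FLAG and anti-Myc immunoprecipitates provided the readout for an ALFA-nanobody-fused binder library recombined into HEK293 landing-pad cells. Those cells were induced with 2 μg mL^−1 doxycycline, transfected with a plasmid expressing a FLAG-tagged target and a Myc-tagged standard, and lysed after 48 h. Target abundance is the per-binder median log2 ratio of FLAG to Myc barcode read proportions. Only barcodes at a proportion of ≥10^−7 in both replicates and binders with ≥3 barcodes per replicate were kept, with a 10^−6 pseudocount added before the two replicates were pooled.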", "values": [
      {"binder": "B1", "median log2 fold change": -0.94},
      {"binder": "B2", "median log2 fold change": 0.183},
      {"binder": "B3", "median log2 fold change": 0.28},
      {"binder": "B4", "median log2 fold change": 0.33},
      {"binder": "B5", "median log2 fold change": 0.294},
      {"binder": "B6", "median log2 fold change": -0.666},
      {"binder": "B7", "median log2 fold change": 0.248},
      {"binder": "B8", "median log2 fold change": -0.402},
      {"binder": "B9", "median log2 fold change": 0.0603},
      {"binder": "B10", "median log2 fold change": 0.194},
      {"binder": "B11", "median log2 fold change": -0.486},
      {"binder": "B12", "median log2 fold change": 0.0544},
      {"binder": "B13", "median log2 fold change": 0.219},
      {"binder": "B14", "median log2 fold change": 0.0194},
      {"binder": "B15", "median log2 fold change": 0.0621},
      {"binder": "B16", "median log2 fold change": -0.00502},
      {"binder": "B17", "median log2 fold change": 0.245},
      {"binder": "B18", "median log2 fold change": -0.694},
      {"binder": "B19", "median log2 fold change": -0.206}
    ]}
  ]
}
